This is an account of results in paper PMC3199943, “Screening the MayBridge Rule of 3 Fragment Library for Compounds That Interact with the Trypanosoma brucei myo-Inositol-3-Phosphate Synthase and/or Show Trypanocidal Activity” (Molecular Biology International, 2011).

The first assay relates to cultured bloodstream T. brucei (strain 427). Kind of assay: microbe, parasite or virus in culture. To be noted: Trypanosoma brucei, read-out: T. brucei Alamar Blue. For orientation: Alamar Blue is a resazurin reagent that responds to reducing activity.
As for `COc1ccccc1C1CCNCC1` [compound 560, 4‐(2‐methoxyphenyl)piperidine], the viability at 500 µM stood at 25 ± 2.7%.
In the case of `OCc1nccs1` [compound 38, 1,3‐thiazol‐2‐ylmethanol], the viability at 500 µM worked out at 87.9 ± 9%.
Same read-out and setting: the figure for `N#Cc1ccccc1-n1cccn1` [compound 340, 2‐(1H‐pyrazol‐1‐yl)benzonitrile] is 78.8 ± 10.1%; for `OCc1ccc(-c2ccco2)cc1` [compound 383, [4-(2-furyl)phenyl]methanol] it is 33 ± 7.2%.
On to `OC12CC3CC(CC(C3)C1)C2` [compound 209, adamantan‐1‐ol], for which the viability at 500 µM was 101 ± 11.5%.
Regarding `NCc1ccccc1N1CCOCC1` [compound 571, 2‐morpholinobenzylamine], the viability at 500 µM was found to be 65.8 ± 9.1%.
For the compound `Cn1nc2ccccc2c1CO` [compound 285, (2‐methyl‐2H‐indazol‐3‐yl)methanol], the viability at 500 µM worked out at 70.7 ± 13.2%.
On to `NC(=O)Cc1ccc(O)cc1` [compound 192, 2‐(4‐hydroxyphenyl)acetamide], for which the viability at 500 µM came to 108 ± 16.5%.
With `Nc1cccc(Oc2ccccn2)c1` [compound 506, 3‐(pyridin‐2‐yloxy)aniline], the viability at 500 µM stood at 103 ± 5.4%.
Consider `OCc1cn2ccccc2n1` [compound 172, imidazo[1,2‐a]pyridin‐2‐ylmethanol], for which the viability at 500 µM was 47.6 ± 14.2%.
With `O=C(C1CCCNC1)N1CCCC1` (centres unmarked) [compound 468, 3‐piperidinyl(1‐pyrrolidinyl)methanone], the viability at 500 µM worked out at 93.4 ± 18.6%.
As to `NC(=O)c1ccccc1C(F)(F)F` [compound 532, 2‐(trifluoromethyl)benzamide], the viability at 500 µM is 93.1 ± 13.1%.
In the case of `OCc1ccc(-c2cncnc2)cc1` [compound 505, (4‐pyrimidin‐5‐ylphenyl)methanol], the viability at 500 µM turned out to be 107 ± 3.1%.
For `N#Cc1ccc(-c2ccccc2)nc1` [compound 456, 6‐phenylnicotinonitrile], the viability at 500 µM was 31.1 ± 4.1%.
With `Nc1cc(-c2cccs2)[nH]n1` [compound 313, 5‐thien‐2‐yl‐1H‐pyrazol‐3‐amine], the viability at 500 µM was 52.4 ± 7%.
Consider `CC(=O)c1nccnc1C` [compound 117, 1‐(3‐methylpyrazin‐2‐yl)ethan‐1‐one], for which the viability at 500 µM was 105 ± 17.6%.
Still for that read-out and setting: under `O=C(O)C1CCCCO1` (centres unmarked) [compound 93, tetrahydropyran‐2‐carboxylic acid] stands 67.2 ± 12%.
The same measure, in the same setting: under `O=C1N[C@@H](Cc2ccccc2)CO1` [compound 421, (S)‐4‐BENZYL‐2‐OXAZOLIDINONE] stands 79.1 ± 9.8%.
For `Cc1ccc(CN)cc1Cl` [compound 233, 3‐chloro‐4‐methylbenzylamine], the viability at 500 µM is 27.7 ± 4.2%.
As to `c1ccc(-c2cnco2)cc1` [compound 156, 5‐phenyl‐1,3‐oxazole], the viability at 500 µM was determined as 35.1 ± 3.8%.
`OCCc1ccc2c(c1)OCO2` [compound 321, 2‐(1,3‐benzodioxol‐5‐yl)ethanol]: the viability at 500 µM was determined as 35.2 ± 14.9%.
On to `Nc1cccc(-c2cccs2)c1` [compound 403, 3‐(2‐thienyl)aniline], for which the viability at 500 µM was found to be 32 ± 5.9%.
With `NCc1ccc(-n2cccn2)cc1` [compound 378, 4‐(1H‐pyrazol‐1‐yl)benzylamine], the viability at 500 µM was 46.3 ± 17.2%.
Regarding `Nc1ccc(CN2CCOCC2)cc1` [compound 567, 4‐(morpholinomethyl)aniline], the viability at 500 µM came to 108.5 ± 0.2%.
On to `OC1CCSCC1` [compound 47, tetrahydro‐2H‐thiopyran‐4‐ol], for which the viability at 500 µM was determined as 113 ± 7.5%.
For the compound `Cc1cccc(N2CCNCC2)c1C` [compound 549, 1‐(2,3‐dimethylphenyl)piperazine], the viability at 500 µM amounted to 25.8 ± 3.4%.
As for `Nc1cccc(Cn2ccnc2)c1` [compound 377, 3‐(1H‐imidazol‐1‐ylmethyl)aniline], the viability at 500 µM was determined as 93.8 ± 15.8%.
On to `Cc1ccc2oc(=O)ccc2c1` [compound 265, 6‐methyl‐2H‐chromen‐2‐one], for which the viability at 500 µM came to 91.1 ± 18.7%.
On to `Cc1csc2ncnc(Cl)c12` [compound 486, 4‐chloro‐5‐methylthieno[2,3‐d]pyrimidine], for which the viability at 500 µM stood at 125 ± 5%.
On to `CN1CCN(Cc2ccccc2N)CC1` [compound 670, 2‐[(4‐methylpiperazin‐1‐yl)methyl]aniline], for which the viability at 500 µM was 52.6 ± 17.6%.
In the case of `Cc1ccc(C#N)c(N)c1` [compound 97, 2-amino-4-methylbenzonitrile], the viability at 500 µM was 72.2 ± 14.4%.
The same measure, in the same setting: under `CNCc1cccnc1` [compound 57, N‐methyl‐N‐(3‐pyridylmethyl)amine] stands 111 ± 6.8%; under `OCc1ccccc1Oc1ccccc1` [compound 621, (2‐phenoxyphenyl)methanol], 45 ± 4.4%; under `Nc1ccc(Oc2ccccc2)nc1` [compound 507, 6‐phenoxy‐3‐pyridinamine], 49.5 ± 6%.
In the case of `CCCc1ccc(NC(C)=O)cc1` [compound 426, N1‐(4‐propylphenyl)acetamide], the viability at 500 µM came out at 104 ± 11.3%.
Turning to `c1cncc(Cn2cccc2)c1` [compound 248, 3‐(1H‐pyrrol‐1‐ylmethyl)pyridine], the viability at 500 µM stood at 72.1 ± 13.2%.
For the compound `OCc1ccccc1N1CCOCC1` [compound 580, (2‐morpholinophenyl)methanol], the viability at 500 µM is 88.6 ± 0.9%.
Take `NCCc1cccs1` [compound 81, 2‐(2‐thienyl)ethylamine]: the viability at 500 µM was determined as 72.3 ± 9%.
As for `Oc1ccc(-n2ccnc2)cc1` [compound 266, 4‐(1H‐imidazol‐1‐yl)phenol], the viability at 500 µM was 81.3 ± 12.5%.
Consider `Cc1cc(CO)nn1C` [compound 76, (1,5‐dimethyl‐1H‐pyrazol‐3‐yl)methanol], for which the viability at 500 µM amounted to 85.4 ± 1.3%.
On the same count and under the same terms, the figure for `COC(=O)c1ccoc1C` [compound 132, methyl 2-methyl-3-furoate] is 34.3 ± 8.4%; for `Nc1ccc2c(c1)C(=O)OC2` [compound 175, 6‐amino‐1,3‐dihydroisobenzofuran‐1‐one] it is 91.7 ± 12.2%.
Consider `O=C(Nc1ccncc1)c1ccccc1` [compound 603, N1‐(4‐pyridyl)benzamide], for which the viability at 500 µM was 82.8 ± 5%.
Turning to `O=C(O)[C@H]1CCCN1` [compound 37, D‐proline], the viability at 500 µM amounted to 103 ± 8.2%.
Take `Cn1nc(-c2ccccc2)cc1N` [compound 376, 1‐methyl‐3‐phenyl‐1H‐pyrazol‐5‐amine]: the viability at 500 µM was determined as 62.2 ± 5.1%.
Take `OCc1ccc(Oc2ccccn2)cc1` [compound 629, [4‐(pyrid‐2‐yloxy)phenyl]methanol]: the viability at 500 µM is 82 ± 5.4%.
Regarding `NCc1cccc(CN2CCCCC2)c1` [compound 655, 3‐piperidin‐1‐ylmethyl benzylamine], the viability at 500 µM came out at 59.2 ± 10.9%.
`O=C(O)c1cncc(-c2ccccc2)c1` [compound 615, 5‐phenylnicotinic acid]: the viability at 500 µM is 77.6 ± 10.5%.

Staying with this assay, now noted: Trypanosoma brucei, read-out: T. brucei Alamar Blue (% survival).
`OCc1ccc(-c2ccco2)cc1` [compound 383, [4-(2-furyl)phenyl]methanol]: the viability at 500 µM came to 33 ± 7.2%.
On to `Cc1ccc(C#N)c(N)c1` [compound 97, 2-amino-4-methylbenzonitrile], for which the viability at 500 µM was 72.2 ± 14.4%.
Still for that read-out and setting: under `COC(=O)c1ccoc1C` [compound 132, methyl 2-methyl-3-furoate] stands 34.3 ± 8.4%.

The same assay, now with this note: Trypanosoma brucei, read-out: T. brucei Alamar Blue, Supplementary Table 1; compound 0.5 mM; percentage of controls in the absence of compound; mean ± SD (n=3) or SE (n=2).
With `O=C(O)c1ccccc1F` [compound 129, 2‐fluorobenzoic acid], the viability at 500 µM was 124 ± 7.6%.
For the compound `Cc1ccccc1NC(N)=S` [compound 326, N‐(2‐methylphenyl)thiourea], the viability at 500 µM came out at 90.2 ± 6.3%.
On to `Oc1ccc(F)cc1` [compound 29, 4‐fluorophenol], for which the viability at 500 µM was found to be 85.3 ± 12.3%.
As for `O=C(O)c1ccc2ccccc2n1` [compound 369, 2‐quinolinecarboxylic acid], the viability at 500 µM is 69.2 ± 10.7%.

The assay is the same for the next values; noted with them: Trypanosoma brucei, read-out: T. brucei ED50, ED50 ± SD (n = 4).
Take `OCc1ccc(-c2ccco2)cc1` [compound 383, [4-(2-furyl)phenyl]methanol]: the IC50 was determined as 187 ± 17 µM.
